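Cells were grown in 96-well plates and exposed to each compound for 48 hours at five concentrations; endpoints were interpolated linearly between bracketing concentrations, or set to the highest concentration if not reached. GI50 is the concentration that inhibits growth by half. Definition used: TGI = concentration required for complete inhibition of growth.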
System: NCI-H322M lung
Test: growth of human tumour cells (NCI), 48 h

Row | Structure (SMILES) | GI50 | TGI
1 | N#Cc1c(NC(=O)c2ccc(C(O)(C(F)(F)F)C(F)(F)F)cc2)sc2c1CCC(=O)C2 | 5.59 µM | 30.3 µM
2 | Cc1sc(C(NC(=O)OCCn2c([N+](=O)[O-])cnc2C)C(F)(F)Cl)nc1-c1ccc(OC(F)(F)F)cc1 (centres undefined) | 6.27 µM | 19.6 µM
